{
  "source": "the supplement of paper PMC7726561",
  "sequences": {"B1": {"name": "unnamed (peptide)", "chain": "YLHDQNPDAAL"}, "B2": {"name": "unnamed (peptide)", "chain": "QMISRIEYV"}, "B3": {"name": "unnamed (peptide)", "chain": "SILEHQIQV"}, "B4": {"name": "unnamed (peptide)", "chain": "YLVEGRFSV"}, "B5": {"name": "unnamed (peptide)", "chain": "ALPPVLTTV"}, "B6": {"name": "unnamed (peptide)", "chain": "ALLQQVHSA"}, "B7": {"name": "unnamed (peptide)", "chain": "KVLGALLFV"}, "B8": {"name": "unnamed (peptide)", "chain": "TLDEKIEKV"}, "B9": {"name": "unnamed (peptide)", "chain": "FLVTVIHTL"}, "B10": {"name": "unnamed (peptide)", "chain": "LTDQTLIYL"}, "B11": {"name": "unnamed (peptide)", "chain": "VLVDRTIYI"}, "B12": {"name": "unnamed (peptide)", "chain": "FLDITNPKAV"}, "B13": {"name": "unnamed (peptide)", "chain": "YLADIFTKL"}, "B14": {"name": "unnamed (peptide)", "chain": "LLDRFLATV"}, "B15": {"name": "unnamed (peptide)", "chain": "KQTDLEITV"}, "B16": {"name": "unnamed (peptide)", "chain": "YVPETVYRV"}, "B17": {"name": "unnamed (peptide)", "chain": "LLPELRDWGV"}, "B18": {"name": "unnamed (peptide)", "chain": "GLLETTVQKV"}, "B19": {"name": "unnamed (peptide)", "chain": "LLFPESIRV"}, "B20": {"name": "unnamed (peptide)", "chain": "SLVQRVETI"}, "B21": {"name": "unnamed (peptide)", "chain": "ILSKTETNV"}, "B22": {"name": "unnamed (peptide)", "chain": "YQTEIGQTL"}, "B23": {"name": "unnamed (peptide)", "chain": "AILETAPKEV"}, "B24": {"name": "unnamed (peptide)", "chain": "HLINVEGVGV"}, "B25": {"name": "unnamed (peptide)", "chain": "KLTENLVAL"}, "B26": {"name": "unnamed (peptide)", "chain": "QMISRIEYI"}, "B27": {"name": "unnamed (peptide)", "chain": "SLMSHAIEL"}, "B28": {"name": "unnamed (peptide)", "chain": "AVYEHPSILSL"}, "B29": {"name": "unnamed (peptide)", "chain": "ILISKLLGA"}, "B30": {"name": "unnamed (peptide)", "chain": "FLHPEPFSI"}, "B31": {"name": "unnamed (peptide)", "chain": "ALIEKLVEL"}, "B32": {"name": "unnamed (peptide)", "chain": "KLLSVLAQV"}, "B33": {"name": "unnamed (peptide)", "chain": "FAYDGKDYIAL"}, "B34": {"name": "unnamed (peptide)", "chain": "GVLPNIQAV"}, "B35": {"name": "unnamed (peptide)", "chain": "ALLGILQHV"}, "B36": {"name": "unnamed (peptide)", "chain": "QLHAGSLVSV"}, "B37": {"name": "unnamed (peptide)", "chain": "GLWEEAYRV"}, "B38": {"name": "unnamed (peptide)", "chain": "QLYNQIIKL"}, "B39": {"name": "unnamed (peptide)", "chain": "NIIELVHQV"}, "B40": {"name": "unnamed (peptide)", "chain": "SLVAVELEKV"}, "B41": {"name": "unnamed (peptide)", "chain": "TLLEDGTFKV"}, "B42": {"name": "unnamed (peptide)", "chain": "YLFSEALNAA"}, "B43": {"name": "unnamed (peptide)", "chain": "VLFELSKTV"}, "B44": {"name": "unnamed (peptide)", "chain": "VLIGEFLEKV"}, "B45": {"name": "unnamed (peptide)", "chain": "IILEEGKEILV"}, "B46": {"name": "unnamed (peptide)", "chain": "NLLPHAINL"}, "B47": {"name": "unnamed (peptide)", "chain": "KLLNDEDQVVV"}, "B48": {"name": "unnamed (peptide)", "chain": "KLQELNYNL"}, "B49": {"name": "unnamed (peptide)", "chain": "RVLDINPQV"}, "B50": {"name": "unnamed (peptide)", "chain": "FLDPRPLTV"}, "B51": {"name": "unnamed (peptide)", "chain": "NIIPYITNV"}, "B52": {"name": "unnamed (peptide)", "chain": "KISTITPQI"}, "B53": {"name": "unnamed (peptide)", "chain": "ILAPVVKEI"}, "B54": {"name": "unnamed (peptide)", "chain": "ALFPERITV"}, "B55": {"name": "unnamed (peptide)", "chain": "AIVDKVPSV"}, "B56": {"name": "unnamed (peptide)", "chain": "MTDPIRILV"}},
  "note": "In all, about 1,100 sequences were measured (“thermal melting temperature (Tm) of peptide-HLA complex”: median about 58, lowest 2% from about 42 on). Some of the results follow.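 Further: cell lysates heated 10 min at 37–73 °C, remaining pHLA pulled down with pan-class I antibody, peptides quantified by DIA-MS versus 37 °C, Tm where half the complex is lost.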",
  "data": [
    {"molecular_target": "HLA-A*02:01", "experiment": "thermal melting temperature (Tm) of peptide-HLA complex; higher = more thermostable pHLA complex", "settings": "C1R-A*02:01", "units": {"thermal melting temperature": "°C"}, "values": [
      {"sequence": "B1", "thermal melting temperature": 59},
      {"sequence": "B2", "thermal melting temperature": 59.7},
      {"sequence": "B3", "thermal melting temperature": 56.9},
      {"sequence": "B4", "thermal melting temperature": 63.5},
      {"sequence": "B5", "thermal melting temperature": 60.4},
      {"sequence": "B6", "thermal melting temperature": 58.2},
      {"sequence": "B7", "thermal melting temperature": 58.7},
      {"sequence": "B8", "thermal melting temperature": 57.8},
      {"sequence": "B9", "thermal melting temperature": 61},
      {"sequence": "B10", "thermal melting temperature": 52.6},
      {"sequence": "B11", "thermal melting temperature": 61.6},
      {"sequence": "B12", "thermal melting temperature": 40.7},
      {"sequence": "B13", "thermal melting temperature": 62.9},
      {"sequence": "B14", "thermal melting temperature": 64.2},
      {"sequence": "B15", "thermal melting temperature": 57.5},
      {"sequence": "B16", "thermal melting temperature": 53.1},
      {"sequence": "B17", "thermal melting temperature": 59.1},
      {"sequence": "B18", "thermal melting temperature": 53.7},
      {"sequence": "B19", "thermal melting temperature": 58.8},
      {"sequence": "B20", "thermal melting temperature": 52.3},
      {"sequence": "B21", "thermal melting temperature": 50.9},
      {"sequence": "B22", "thermal melting temperature": 52},
      {"sequence": "B23", "thermal melting temperature": 58},
      {"sequence": "B24", "thermal melting temperature": 59.7},
      {"sequence": "B25", "thermal melting temperature": 59},
      {"sequence": "B26", "thermal melting temperature": 58.6},
      {"sequence": "B27", "thermal melting temperature": 60.7},
      {"sequence": "B28", "thermal melting temperature": 57.6},
      {"sequence": "B29", "thermal melting temperature": 58.9},
      {"sequence": "B30", "thermal melting temperature": 61.1},
      {"sequence": "B31", "thermal melting temperature": 64.4},
      {"sequence": "B32", "thermal melting temperature": 58},
      {"sequence": "B33", "thermal melting temperature": 46.3},
      {"sequence": "B34", "thermal melting temperature": 55.7},
      {"sequence": "B35", "thermal melting temperature": 63.3},
      {"sequence": "B36", "thermal melting temperature": 59.3},
      {"sequence": "B37", "thermal melting temperature": 65.2},
      {"sequence": "B38", "thermal melting temperature": 56.1},
      {"sequence": "B39", "thermal melting temperature": 57.1},
      {"sequence": "B40", "thermal melting temperature": 57.5},
      {"sequence": "B41", "thermal melting temperature": 59.5},
      {"sequence": "B42", "thermal melting temperature": 60.8},
      {"sequence": "B43", "thermal melting temperature": 44.4},
      {"sequence": "B44", "thermal melting temperature": 46.1},
      {"sequence": "B45", "thermal melting temperature": 52.2},
      {"sequence": "B46", "thermal melting temperature": 57.8},
      {"sequence": "B47", "thermal melting temperature": 53.6},
      {"sequence": "B48", "thermal melting temperature": 60.1},
      {"sequence": "B49", "thermal melting temperature": 57},
      {"sequence": "B50", "thermal melting temperature": 63.2},
      {"sequence": "B51", "thermal melting temperature": 51.4},
      {"sequence": "B52", "thermal melting temperature": 47.1},
      {"sequence": "B53", "thermal melting temperature": 59.6},
      {"sequence": "B54", "thermal melting temperature": 61.6},
      {"sequence": "B55", "thermal melting temperature": 61.5},
      {"sequence": "B56", "thermal melting temperature": 41.9}
    ]}
  ]
}
